Laboratory results from PubChem BioAssay (NCI).
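Results reflect a 48-hour exposure of cells in 96-well plates to compound at five concentrations. The concentration for 50% growth inhibition is given as GI50. TGI denotes the concentration required for complete inhibition of growth.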

tested on: NCI-H322M lung; assay: growth of human tumour cells (NCI), 48 h

Row | SMILES | GI50 [µM] | TGI [µM]
1 | N#Cc1cnc2ccc(-c3cnc4[nH]ncc4c3)cc2c1N1CCc2cc(F)c(Cl)cc21 | 0.382 | > 100
2 | O=C(Nc1ccc(F)cc1)c1cc(-c2ccc(F)cc2F)ccc1O | 2.85 | 15.1
3 | Cc1cc2nc(C(Cl)Cl)nc(-c3cccs3)n2n1 | 0.561 | 3.09
4 | COc1cc(/C=C/C(=O)c2cc(OC)c(OC)c(OC)c2)ccc1Oc1nc(NCCO)nc(N2CCOCC2)n1 | 2.91 | 8.63
5 | Oc1ccc(CSc2nnc(-c3ccncc3)n2-c2ccccc2)c2cccnc12 | 1.94 | > 100
6 | Cc1ccc(NC(=O)c2ccc(CN3CCN(C)CC3)c(C(F)(F)F)c2)cc1Oc1ccc(-c2[nH]nc3ncnc(N)c23)cc1 | 2.43 | 6.11
